In PubChem BioAssay AID485367 (National Center for Advancing Translational Sciences (NCATS), 2010):
Among all 330,000 compounds or so, about 560 (0.17%) were called active. The shares of active, inactive and inconclusive entries below differ from those in the screen. Calls follow the shape of the dose curve; as a rule, active = well fitted inhibition curve with a large enough effect; inconclusive = small, poorly fitted or top-dose-only effect, or effect the other way; inactive = flat fitted curve, though single readings scatter. No potency is given beside an inconclusive call; the fits are too rough.
Also: nearly all actives have a fitted effect of over 60% in size.
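For activity, negative = inhibition in this document: 0% = uninhibited 1x PFK enzyme wells and -100% = no-enzyme wells.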
Potency is read from the fitted curve at half-maximal effect; tags tell the direction and shape of the fitted curve.

Each compound was assayed against ATP-dependent 6-phosphofructokinase (Trypanosoma brucei brucei) (UniProt O15648) (assay: qHTS Assay to Find Inhibitors of T. brucei phosphofructokinase). Conditions: T. brucei PFK, ADP-Glo luminescence; activity, negative = inhibition: at 57.5 µM (top of the series).
Chain of UniProt O15648 (O15648 whole entry, looked up): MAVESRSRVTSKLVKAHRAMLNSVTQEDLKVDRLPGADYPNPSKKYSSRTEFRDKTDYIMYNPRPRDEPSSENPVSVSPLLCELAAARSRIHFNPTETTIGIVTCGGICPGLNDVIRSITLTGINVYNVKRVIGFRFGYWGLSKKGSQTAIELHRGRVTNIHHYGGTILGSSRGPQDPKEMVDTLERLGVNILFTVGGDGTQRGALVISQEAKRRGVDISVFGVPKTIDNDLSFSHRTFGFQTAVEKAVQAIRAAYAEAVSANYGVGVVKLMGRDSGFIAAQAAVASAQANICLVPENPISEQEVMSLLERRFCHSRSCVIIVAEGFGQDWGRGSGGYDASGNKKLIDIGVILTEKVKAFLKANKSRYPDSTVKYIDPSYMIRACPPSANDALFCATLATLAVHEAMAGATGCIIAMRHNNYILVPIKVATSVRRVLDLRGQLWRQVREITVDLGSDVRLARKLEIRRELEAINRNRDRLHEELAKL
Method in brief: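 Compounds were pin-transferred as a titration series up to 57 uM into substrate buffer (0.5 mM F6P, 0.1 mM ATP, pH 8.0), then 1.25 nM PFK was added and reactions ran 45 min before ADP-Glo detection.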
For `Cc1cnc(CNC(=O)c2ccc3oc(Cc4ccc(Cl)cc4)nc3c2)cn1`, the Potency was inconclusive [falling, partial curve, poor fit].
For `COCCN(Cc1nc2ccccc2c(=O)[nH]1)C(=O)COc1cccc(C(C)=O)c1`, the “activity, negative = inhibition” value was inactive: -8.58%.
For `CCOc1ccc(NC(=O)CSc2nc(=O)n(Cc3ccccn3)c3c2CCC3)cc1`, the Potency was inconclusive [falling, single point].
With `CS(=O)(=O)NCCSCc1ccco1` the Potency was inconclusive [falling, single point].
`O=C(CN(c1ccccc1)S(=O)(=O)c1ccccc1)NCCSCc1ccco1` was tested, and the Potency was inconclusive [falling, single point].
With `COc1ccc(C(=O)O/N=C(\N)c2ccccc2)cc1` the Potency was inconclusive [falling, partial curve].
In the case of `NS(=O)(=O)c1ccc(-c2ccc(C=O)o2)cc1`, the “activity, negative = inhibition” value is reported as inactive: 1.07%.
With `CC(C)(C)OC(=O)C[C@@H]1C/C=C\C[C@@H](CC(=O)N(CCO)Cc2ccccc2)C(=O)N[C@@H](c2ccccc2)COC1=O` the “activity, negative = inhibition” value was inactive: -0.0818%.
`O=C(COC(=O)c1cccc(S(=O)(=O)N2CCN(c3ccccc3)CC2)c1)NCc1ccco1` was tested, and the Potency was inconclusive [falling, full curve].
`CCN(CC)c1nc(N)c2c(N)nc3c(c2c1C#N)CC(c1ccccc1)O3` (configuration not stated) was tested, and the “activity, negative = inhibition” value was inactive: -9.43%.
`COc1cc2c(cc1OC)CN(c1nc(CN3CCOCC3)nc3sc4c(c13)CCCC4)CC2` was tested, and the “activity, negative = inhibition” value was inactive: -1.34%.
`N#Cc1cccc(NCC(=O)Nc2ccc3c(c2)OCCO3)c1` was tested, and the Potency was active: 21.3 µM.
In the case of `NC(=O)c1ccsc1NC(=O)CSc1ncnc2sccc12`, the Potency is reported as inconclusive [activator, single point].
With `COc1cc(NS(=O)(=O)c2ccc(NC(=S)NC(=O)c3cccs3)cc2)nc(OC)n1` the Potency was inconclusive [activator, partial curve].
With `Cc1ccc(OC(=O)C2CSC3(C)CCC(=O)N23)c(Br)c1` (configuration not stated) the Potency was inconclusive [activator, full curve, poor fit].
For `O=C(CSc1nc2ccccc2c(=O)[nH]1)Nc1nc(-c2ccc(Br)cc2)cs1`, the Potency was active: 2.69 µM.
`O=C(CCn1cnnn1)Nc1ccc(Cl)c(Cl)c1` was tested, and the Potency was inconclusive [falling, single point].
With `COc1cc(/C=C2/SC(=S)N(c3c(C)n(C)n(-c4ccccc4)c3=O)C2=O)ccc1O` the “activity, negative = inhibition” value was inactive: -14%.
With `COc1ccnc(CSC(N)=Nc2ccc(F)cc2)c1` the Potency was inconclusive [falling, single point].
With `CC(C)(C)c1cc(CN2CCCCC2)cc(C(C)(C)C)c1O` the Potency was inconclusive [falling, single point].
For `CCn1c(=O)cc(OCC(=O)NC(C)c2ccc3c(c2)OCCO3)c2ccccc21` (configuration not stated), the “activity, negative = inhibition” value was inactive: 0.779%.
With `CC1CN(C2=N/C(=C/c3ccc4c(c3)OCO4)C(=O)N2)CC(C)O1` (configuration not stated) the “activity, negative = inhibition” value was inactive: 4.21%.
In the case of `Cc1cccc(NC(=O)C2CC(=O)N(Cc3ccccc3)C2)n1` (configuration not stated), the Potency is reported as inconclusive [activator, single point].
In the case of `Cc1cccc(NC(=O)CSc2nnc(CN3CCOCC3)n2C)c1C`, the Potency is reported as inconclusive [falling, single point].
`CC(C)(C)C1=Nn2c(nnc2C2CCCCC2)SC1` was tested, and the Potency was inconclusive [falling, full curve].
For `O=C(Nc1ccc(Oc2ccc(Cl)cc2)c(Cl)c1)c1cc(I)cc(I)c1O`, the “activity, negative = inhibition” value was inactive: -0.289%.
`N#Cc1cccc(N=c2ssnc2Cl)c1` was tested, and the Potency was inconclusive [falling, single point].
In the case of `COc1ccccc1NC(=O)Cn1cnc2sc(C(=O)NCc3ccco3)c(C)c2c1=O`, the Potency is reported as inconclusive [falling, single point].
For `NS(=O)(=O)c1ccc(O)c(NC(=O)c2ccc([N+](=O)[O-])o2)c1`, the Potency was inconclusive [falling, partial curve].
In the case of `CCOc1ccc(C2C(C(=O)c3ccc(C)o3)=C(O)C(=O)N2c2cc(C)on2)cc1OC` (configuration not stated), the “activity, negative = inhibition” value is reported as inactive: 2.08%.
For `O=C(CNC(=O)/C=C/c1ccco1)N=Nc1c(O)[nH]c2ccccc12`, the Potency was inconclusive [falling, single point].
In the case of `COc1ccccc1-c1noc(-c2cc(OC)c(OC)c(OC)c2)n1`, the “activity, negative = inhibition” value is reported as inactive: -1.61%.
In the case of `CC1CCc2[nH]c3ccc(C(=O)N(C)CC(=O)Nc4ccccc4Cl)cc3c2C1` (configuration not stated), the Potency is reported as inconclusive [falling, single point].
With `Cc1ccc(C(NC(=O)c2ccccc2)C(Cl)Cl)cc1` (configuration not stated) the Potency was inconclusive [falling, single point].
For `CCc1ccc(NC(=O)CCC(=O)c2ccc(C)cc2)cc1`, the “activity, negative = inhibition” value was inactive: -3.75%.
With `CN(C)S(=O)(=O)c1ccc(C(=O)OCc2ccc([N+](=O)[O-])cc2)cc1` the Potency was inconclusive [falling, partial curve, poor fit].
For `Cc1ccccc1CN1C[C@@H]2C[C@@H](c3cn(C)nc3-c3ccccc3)N3CCC[C@@]23C1=O`, the Potency was inconclusive [falling, partial curve].
